Measurements as given in PMC6212790.
This is one part of the list. At the low end of the ranking, values are background and their order means little.

biological target: T1, GST-Rok-C97-191 (UniProt O34857); assay: protein binding microarray; conditions: Rok is a gene silencer of Bacillus subtilis; high values mean tight binding; most listed sequences are background and not binding sites; double strand, one strand shown;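 note: rank score from −0.5 (least bound) to 0.5 (best bound)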
T1 sequence: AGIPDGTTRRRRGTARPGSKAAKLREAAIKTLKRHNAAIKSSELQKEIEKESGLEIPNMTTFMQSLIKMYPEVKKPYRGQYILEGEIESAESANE

Sequence	binding signal [E-score]
ATATTCCG	0.273
CGCCTAGC	-0.0541
ATCGTTTA	0.0197
AATTATGA	0.113
AATCCCCC	-0.262
CATAAGGG	-0.0186
TCATCTCA	-0.135
AATAGATC	0.161
CCATGTCG	-0.0506
ACGGGCCT	-0.248
GGTCAGAA	-0.0853
AGCATAGA	-0.0904
TGCATGCA	-0.11
AGTGCATC	-0.126
ACCGCCTA	-0.103
ACGTCAGG	-0.225
AGGTGGTA	0.122
ATAGTACG	0.248
CTAGCCAC	0.0288
CCTGAGCG	-0.101
CTGCGAAC	-0.116
CGTTGTGA	0.0682
CTGGTCTA	-0.0758
ATCTGTAC	0.0594
CTATCCGA	0.0845

Sequence	binding signal [E-score]
CACAAACC	-0.0611
CCATCTAA	0.126
TCTTGCCA	-0.0538
AGTGATGG	0.118
TTCACCAA	-0.00927
GTAACCAA	0.000641
AACTATTC	0.219
CAGGGGAC	-0.382
ATCTGTGG	-0.12
GTTTAAAC	0.0536
ACCTTACA	0.128
ATTTTTAA	0.146
AACCTACT	0.251
CAGCCTGC	-0.157
CGCTCTCA	-0.164
ACGGGCAC	-0.0598
CCTCCGCC	-0.254
CTACGAGA	0.177
AGCTTGTC	0.00187
AGCCAGCC	-0.267
GGATCGGA	-0.143
AGAGCCGG	-0.295
AGTATCCG	0.0688
GGGTGATA	0.131
TGCAGAAA	-0.11

Sequence	binding signal [E-score]
ATCACTGC	-0.138
AACGCAGA	-0.256
AAGTAAGC	0.061
ATACACCG	0.0158
CGGGTTAG	-0.157
CGAACTCC	-0.103
CGAATCAG	0.0524
TACCTCTA	0.209
CTTAAGCA	-0.142
AGAGCTGA	-0.173
AGAAGTCC	-0.0822
ATTGTTAA	0.228
CACTAACG	-0.157
CAGCGTAA	0.0908
AGCAGTAG	0.228
CAATGTCC	-0.155
ATGGAAGC	-0.0449
AACCGGCA	0.151
ATGCACCG	0.00829
ATTTTTCA	-0.125
AGGCCGTG	-0.285
TACCTCGA	0.119
ATTCAGCC	-0.143
AGGACGGG	-0.0999
ACTTTATC	0.19

Sequence	binding signal [E-score]
CAGGACGC	-0.291
GTCCCAAC	-0.0819
AATTTGGC	0.0996
AGTCGAAA	-0.0607
GATGTGAC	-0.0291
GTAACAAA	0.21
CGCCGGCC	-0.312
AGATGGTG	0.08
GAGCATTA	0.0334
CGGGTGAC	-0.259
GACTATAA	0.172
CCTCCCAG	-0.272
CGCGATAA	0.00964
CCGCCTGC	-0.42
ATATATTA	0.447
AGCCCGCA	-0.143
CCGCTGAC	-0.125
ATCTAACA	0.192
CTTAGCCA	-0.121
AGAGAGAT	0.0965
AACTCTCG	0.1
ACGCATAT	0.108
CGTCGTGA	-0.0793
CATGAACG	0.00655
ACGAAACC	-0.0677

Sequence	binding signal [E-score]
ACAATCTC	-0.117
ACCCAGCT	-0.00933
GGTATGTA	0.241
CCACTCAG	-0.0368
CTGTGCGA	-0.237
TAGACAGA	0.000902
GCAACGAA	-0.0135
AATTGCGC	0.037
ACGGAGCG	-0.113
ACTAGCGA	0.126
AGCTTGGA	-0.101
GTCAGCTA	-0.112
GCCTGCAA	-0.165
CTACAGGC	-0.133
GAGAGTCA	-0.203
ACCTGCTG	-0.254
CCTACATA	0.0626
GCAGATAC	-0.00726
CCAGCAGC	-0.123
ATCATTTC	-0.0795
CTGAACAC	-0.259
CATTTATC	0.218
GGACAGAA	-0.145
AAACGTTG	-0.172
GGTTCGGA	-0.284

Sequence	binding signal [E-score]
ATGCCGTC	-0.117
CACCGTCC	-0.124
AGGGACAA	-0.155
CTGTTACC	-0.105
GATGAGTA	0.158
AGTTGAAG	0.191
AGGCGAAT	0.058
CACATTGG	0.0438
ATAGGAGC	-0.036
CGATAGGA	-0.0106
CTAATTAC	0.382
ACAGTTCG	0.19
ACGACGGG	-0.224
AATTACAC	0.304
CCACTTAA	0.00718
AAAGACGG	0.129
GACCGGCC	-0.178
CGCAAGGC	-0.332
GAGATTAC	0.0639
AAATGGGC	-0.0731
AAAGACCA	-0.0827
GCCAACCC	-0.235
CTTTTTCA	0.0406
CTACTATC	0.344
TCCTTCGA	-0.145

Sequence	binding signal [E-score]
AAGCCGTA	0.13
GTATACCA	0.267
CGTTTCCA	-0.0556
CAGTGCTA	-0.0266
AGCGTCCA	-0.0715
ATTTCTGA	0.0193
AAACACCT	-0.0592
GTGGAGAA	0.071
CACATAAC	0.0703
GAGCCAGC	-0.313
ACTTTTCT	0.119
GGAACTTA	-0.00528
AGATATCT	0.355
ATTAGGTG	0.179
AAATTAAT	0.285
GGGTCTTA	-0.219
ACACACAG	0.093
TGACAACA	-0.0615
AGAACACG	0.0807
TACAATAA	0.108
ACAATTTG	0.104
CTTCTTTC	-0.0629
